± gives the standard deviation of the averaged measurements. Restriction of a single-cycle SIVsab GFP reporter by TRIM5α v1-loop variants in CRFK cells. Human variants: read share among cells still uninfected after two challenges over input, higher = gained restriction. Rhesus variants: share among infected cells over input, higher = lost restriction. Reporter dose not given per row. No active / inactive call per row; the paper calls a change when both replicates lie above its controls (mean + 2 SD of stop or wild-type variants, or the top frameshift score). Residues outside the varied loop are taken from Swiss-Prot. The paper reads the human single-substitution scores as noise; they and the rhesus combinations repeat poorly (rank correlation 0.3 to 0.4), indel scores repeat only for the top variants, rhesus substitutions well (0.9).
These sequences were tested on SIVsab (simian immunodeficiency virus of sabaeus monkeys), single-cycle GFP reporter, in CRFK cells (assay: enrichment among uninfected cells over input (fold); higher = stronger restriction). Conditions: library: human / rhesus combinations.
Method: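 Pools of CRFK cells expressing variants of the TRIM5α v1 loop were challenged with the single-cycle reporter, sorted by GFP and sequenced; mean of two replicates.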

Sequence | enrichment
MASGILVNVKEEVTCPICLELLTQPLSLDCGHSFCQACLTANHKKSMLDKGESSCPVCRISYQPENIRPNRHVANIVEKLREVKLSPEGQKVDHCARHGEKLLLFCQEDGKVICWLCERSQEHRGHHTFLTEEVAREYQVKLQAALEMLRQKQQEAEELEADIREEKASWKTQIQYDKTNVLADFEQLRDILDWEESNELQNLEKEEEDILKSLTNSETEMVQQTQSLRELISDLEHRLQGSVMELLQGVDGVIKRTENVTLKKPETFPKNQRRVFRAPDLKGMLEVFRELTDVRRYWVDVTVAPNNISCAVISEDKRQVSSPKPQIIYGAPGTLFTFQTLTNFNYCTGILGSQSITSGKHYWEVDVSKKTAWILGVCAGFQPDAMCNIEKNENYQPKYGYWVIGLEEGVKCSAFQDSSFHTPSVPFIVPLSVIICPDRVGVFLDYEACTVSFFNITNHGFLIYKFSHCSFSQPVFPYLNPRKCGVPMTLCSPSS [human TRIM5α, 330-340 = GAPGTLFTFQTLT] | 0.088 ± 0.12
MASGILVNVKEEVTCPICLELLTQPLSLDCGHSFCQACLTANHKKSMLDKGESSCPVCRISYQPENIRPNRHVANIVEKLREVKLSPEGQKVDHCARHGEKLLLFCQEDGKVICWLCERSQEHRGHHTFLTEEVAREYQVKLQAALEMLRQKQQEAEELEADIREEKASWKTQIQYDKTNVLADFEQLRDILDWEESNELQNLEKEEEDILKSLTNSETEMVQQTQSLRELISDLEHRLQGSVMELLQGVDGVIKRTENVTLKKPETFPKNQRRVFRAPDLKGMLEVFRELTDVRRYWVDVTVAPNNISCAVISEDKRQVSSPKPQIIYQAPGTLFPSFVNFNYCTGILGSQSITSGKHYWEVDVSKKTAWILGVCAGFQPDAMCNIEKNENYQPKYGYWVIGLEEGVKCSAFQDSSFHTPSVPFIVPLSVIICPDRVGVFLDYEACTVSFFNITNHGFLIYKFSHCSFSQPVFPYLNPRKCGVPMTLCSPSS [human TRIM5α, 330-340 = QAPGTLFPSFV] | 0.187 ± 0.23
MASGILVNVKEEVTCPICLELLTQPLSLDCGHSFCQACLTANHKKSMLDKGESSCPVCRISYQPENIRPNRHVANIVEKLREVKLSPEGQKVDHCARHGEKLLLFCQEDGKVICWLCERSQEHRGHHTFLTEEVAREYQVKLQAALEMLRQKQQEAEELEADIREEKASWKTQIQYDKTNVLADFEQLRDILDWEESNELQNLEKEEEDILKSLTNSETEMVQQTQSLRELISDLEHRLQGSVMELLQGVDGVIKRTENVTLKKPETFPKNQRRVFRAPDLKGMLEVFRELTDVRRYWVDVTVAPNNISCAVISEDKRQVSSPKPQIIYGAPGTLYTFQSLTNFNYCTGILGSQSITSGKHYWEVDVSKKTAWILGVCAGFQPDAMCNIEKNENYQPKYGYWVIGLEEGVKCSAFQDSSFHTPSVPFIVPLSVIICPDRVGVFLDYEACTVSFFNITNHGFLIYKFSHCSFSQPVFPYLNPRKCGVPMTLCSPSS [human TRIM5α, 330-340 = GAPGTLYTFQSLT] | 0.206 ± 0.16
MASGILVNVKEEVTCPICLELLTQPLSLDCGHSFCQACLTANHKKSMLDKGESSCPVCRISYQPENIRPNRHVANIVEKLREVKLSPEGQKVDHCARHGEKLLLFCQEDGKVICWLCERSQEHRGHHTFLTEEVAREYQVKLQAALEMLRQKQQEAEELEADIREEKASWKTQIQYDKTNVLADFEQLRDILDWEESNELQNLEKEEEDILKSLTNSETEMVQQTQSLRELISDLEHRLQGSVMELLQGVDGVIKRTENVTLKKPETFPKNQRRVFRAPDLKGMLEVFRELTDVRRYWVDVTVAPNNISCAVISEDKRQVSSPKPQIIYQARGTLYTFPTLVNFNYCTGILGSQSITSGKHYWEVDVSKKTAWILGVCAGFQPDAMCNIEKNENYQPKYGYWVIGLEEGVKCSAFQDSSFHTPSVPFIVPLSVIICPDRVGVFLDYEACTVSFFNITNHGFLIYKFSHCSFSQPVFPYLNPRKCGVPMTLCSPSS [human TRIM5α, 330-340 = QARGTLYTFPTLV] | 0.141 ± 0.2
MASGILVNVKEEVTCPICLELLTQPLSLDCGHSFCQACLTANHKKSMLDKGESSCPVCRISYQPENIRPNRHVANIVEKLREVKLSPEGQKVDHCARHGEKLLLFCQEDGKVICWLCERSQEHRGHHTFLTEEVAREYQVKLQAALEMLRQKQQEAEELEADIREEKASWKTQIQYDKTNVLADFEQLRDILDWEESNELQNLEKEEEDILKSLTNSETEMVQQTQSLRELISDLEHRLQGSVMELLQGVDGVIKRTENVTLKKPETFPKNQRRVFRAPDLKGMLEVFRELTDVRRYWVDVTVAPNNISCAVISEDKRQVSSPKPQIIYQARGTLFTFQSFTNFNYCTGILGSQSITSGKHYWEVDVSKKTAWILGVCAGFQPDAMCNIEKNENYQPKYGYWVIGLEEGVKCSAFQDSSFHTPSVPFIVPLSVIICPDRVGVFLDYEACTVSFFNITNHGFLIYKFSHCSFSQPVFPYLNPRKCGVPMTLCSPSS [human TRIM5α, 330-340 = QARGTLFTFQSFT] | 0.0926 ± 0.079
MASGILVNVKEEVTCPICLELLTQPLSLDCGHSFCQACLTANHKKSMLDKGESSCPVCRISYQPENIRPNRHVANIVEKLREVKLSPEGQKVDHCARHGEKLLLFCQEDGKVICWLCERSQEHRGHHTFLTEEVAREYQVKLQAALEMLRQKQQEAEELEADIREEKASWKTQIQYDKTNVLADFEQLRDILDWEESNELQNLEKEEEDILKSLTNSETEMVQQTQSLRELISDLEHRLQGSVMELLQGVDGVIKRTENVTLKKPETFPKNQRRVFRAPDLKGMLEVFRELTDVRRYWVDVTVAPNNISCAVISEDKRQVSSPKPQIIYGARGTRFTFQTFVNFNYCTGILGSQSITSGKHYWEVDVSKKTAWILGVCAGFQPDAMCNIEKNENYQPKYGYWVIGLEEGVKCSAFQDSSFHTPSVPFIVPLSVIICPDRVGVFLDYEACTVSFFNITNHGFLIYKFSHCSFSQPVFPYLNPRKCGVPMTLCSPSS [human TRIM5α, 330-340 = GARGTRFTFQTFV] | 0.0554 ± 0.04

Same assay, conditions: library: insertions and deletions

Sequence | enrichment
MASGILVNVKEEVTCPICLELLTQPLSLDCGHSFCQACLTANHKKSMLDKGESSCPVCRISYQPENIRPNRHVANIVEKLREVKLSPEGQKVDHCARHGEKLLLFCQEDGKVICWLCERSQEHRGHHTFLTEEVAREYQVKLQAALEMLRQKQQEAEELEADIREEKASWKTQIQYDKTNVLADFEQLRDILDWEESNELQNLEKEEEDILKSLTNSETEMVQQTQSLRELISDLEHRLQGSVMELLQGVDGVIKRTENVTLKKPETFPKNQRRVFRAPDLKGMLEVFRELTDVRRYWVDVTVAPNNISCAVISEDKRQVSSPKPQIIYGARGTRYQTFVRGTRYQTFVNFNYCTGILGSQSITSGKHYWEVDVSKKTAWILGVCAGFQPDAMCNIEKNENYQPKYGYWVIGLEEGVKCSAFQDSSFHTPSVPFIVPLSVIICPDRVGVFLDYEACTVSFFNITNHGFLIYKFSHCSFSQPVFPYLNPRKCGVPMTLCSPSS [human TRIM5α, 9-codon duplication at 332] | 0.268 ± 0.098
MASGILVNVKEEVTCPICLELLTQPLSLDCGHSFCQACLTANHKKSMLDKGESSCPVCRISYQPENIRPNRHVANIVEKLREVKLSPEGQKVDHCARHGEKLLLFCQEDGKVICWLCERSQEHRGHHTFLTEEVAREYQVKLQAALEMLRQKQQEAEELEADIREEKASWKTQIQYDKTNVLADFEQLRDILDWEESNELQNLEKEEEDILKSLTNSETEMVQQTQSLRELISDLEHRLQGSVMELLQGVDGVIKRTENVTLKKPETFPKNQRRVFRAPDLKGMLEVFRELTDVRRYWVDVTVAPNNISCAVISEDKRQVSSPKPQIIYGARGTRYQTFRGTRYQTFVNFNYCTGILGSQSITSGKHYWEVDVSKKTAWILGVCAGFQPDAMCNIEKNENYQPKYGYWVIGLEEGVKCSAFQDSSFHTPSVPFIVPLSVIICPDRVGVFLDYEACTVSFFNITNHGFLIYKFSHCSFSQPVFPYLNPRKCGVPMTLCSPSS [human TRIM5α, 8-codon duplication at 332] | 0.0514 ± 0.07
MASGILVNVKEEVTCPICLELLTQPLSLDCGHSFCQACLTANHKKSMLDKGESSCPVCRISYQPENIRPNRHVANIVEKLREVKLSPEGQKVDHCARHGEKLLLFCQEDGKVICWLCERSQEHRGHHTFLTEEVAREYQVKLQAALEMLRQKQQEAEELEADIREEKASWKTQIQYDKTNVLADFEQLRDILDWEESNELQNLEKEEEDILKSLTNSETEMVQQTQSLRELISDLEHRLQGSVMELLQGVDGVIKRTENVTLKKPETFPKNQRRVFRAPDLKGMLEVFRELTDVRRYWVDVTVAPNNISCAVISEDKRQVSSPKPQIIYGARKPQIIYGARGTRYQTFVNFNYCTGILGSQSITSGKHYWEVDVSKKTAWILGVCAGFQPDAMCNIEKNENYQPKYGYWVIGLEEGVKCSAFQDSSFHTPSVPFIVPLSVIICPDRVGVFLDYEACTVSFFNITNHGFLIYKFSHCSFSQPVFPYLNPRKCGVPMTLCSPSS [human TRIM5α, 9-codon duplication at 324] | 0.292 ± 0.4
MASGILVNVKEEVTCPICLELLTQPLSLDCGHSFCQACLTANHKKSMLDKGESSCPVCRISYQPENIRPNRHVANIVEKLREVKLSPEGQKVDHCARHGEKLLLFCQEDGKVICWLCERSQEHRGHHTFLTEEVAREYQVKLQAALEMLRQKQQEAEELEADIREEKASWKTQIQYDKTNVLADFEQLRDILDWEESNELQNLEKEEEDILKSLTNSETEMVQQTQSLRELISDLEHRLQGSVMELLQGVDGVIKRTENVTLKKPETFPKNQRRVFRAPDLKGMLEVFRELTDVRRYWVDVTVAPNNISCAVISEDKRQVSSPKPQIIYGARGTRYQTFVNFNVNFNYCTGILGSQSITSGKHYWEVDVSKKTAWILGVCAGFQPDAMCNIEKNENYQPKYGYWVIGLEEGVKCSAFQDSSFHTPSVPFIVPLSVIICPDRVGVFLDYEACTVSFFNITNHGFLIYKFSHCSFSQPVFPYLNPRKCGVPMTLCSPSS [human TRIM5α, 4-codon duplication at 340] | 0.819 ± 0.69
MASGILVNVKEEVTCPICLELLTQPLSLDCGHSFCQACLTANHKKSMLDKGESSCPVCRISYQPENIRPNRHVANIVEKLREVKLSPEGQKVDHCARHGEKLLLFCQEDGKVICWLCERSQEHRGHHTFLTEEVAREYQVKLQAALEMLRQKQQEAEELEADIREEKASWKTQIQYDKTNVLADFEQLRDILDWEESNELQNLEKEEEDILKSLTNSETEMVQQTQSLRELISDLEHRLQGSVMELLQGVDGVIKRTENVTLKKPETFPKNQRRVFRAPDLKGMLEVFRELTDVRRYWVDVTVAPNNISCAVISEDKRQVSSPKPRYQTFVNFNYCTGILGSQSITSGKHYWEVDVSKKTAWILGVCAGFQPDAMCNIEKNENYQPKYGYWVIGLEEGVKCSAFQDSSFHTPSVPFIVPLSVIICPDRVGVFLDYEACTVSFFNITNHGFLIYKFSHCSFSQPVFPYLNPRKCGVPMTLCSPSS [human TRIM5α, 9-codon deletion at 326] | 0.833 ± 0.43
MASGILVNVKEEVTCPICLELLTQPLSLDCGHSFCQACLTANHKKSMLDKGESSCPVCRISYQPENIRPNRHVANIVEKLREVKLSPEGQKVDHCARHGEKLLLFCQEDGKVICWLCERSQEHRGHHTFLTEEVAREYQVKLQAALEMLRQKQQEAEELEADIREEKASWKTQIQYDKTNVLADFEQLRDILDWEESNELQNLEKEEEDILKSLTNSETEMVQQTQSLRELISDLEHRLQGSVMELLQGVDGVIKRTENVTLKKPETFPKNQRRVFRAPDLKGMLEVFRELTDVRRYWVDVTVAPNNISCAVISEDKRQVSSPKPQIIYGARGTRYQTFVNFNYYCTGILGSQSITSGKHYWEVDVSKKTAWILGVCAGFQPDAMCNIEKNENYQPKYGYWVIGLEEGVKCSAFQDSSFHTPSVPFIVPLSVIICPDRVGVFLDYEACTVSFFNITNHGFLIYKFSHCSFSQPVFPYLNPRKCGVPMTLCSPSS [human TRIM5α, 1-codon duplication at 344] | 0.355 ± 0.12

Source: the supplement of paper PMC12230231
